{"source": "the supplement of paper PMC4166925", "note": "± gives the standard deviation of the averaged measurements. Whole data set: some 33,000 sequences, median “E-score (dimensionless, -0.5 to 0.5)” near -0.049, cut for the highest 2% near 0.37. Some of the results follow."}
{"test_system": "T1, PmTbr T-box DNA-binding domain (GST fusion)", "T1 sequence": "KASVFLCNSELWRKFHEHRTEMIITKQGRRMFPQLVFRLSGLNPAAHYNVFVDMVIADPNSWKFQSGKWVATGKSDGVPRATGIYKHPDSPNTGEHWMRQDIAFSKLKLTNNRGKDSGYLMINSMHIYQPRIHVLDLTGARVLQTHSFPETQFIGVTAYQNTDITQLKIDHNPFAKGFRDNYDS", "assay": "PBM E-score of 8-mer (E-score (dimensionless, -0.5 to 0.5)); Tbr is Tbrain of the sea star Patiria miniata (Pm) or the sea urchin Strongylocentrotus purpuratus (Sp); higher = stronger binding preference; most listed sequences are background and not binding sites", "settings": "the construct has about 5 more residues each side", "summary_of_the_method": "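Primer extension turned Universal Agilent oligonucleotide arrays double-stranded. They were incubated with 200 nM protein in PBS (pH 7.5); the protein was a GST-fused Tbr T-box DNA-binding domain expressed in BL21 E. coli at 20 °C and purified on glutathione. Every ungapped 8-mer was scored from the scanned, quantified probe intensities, and the Universal PBM Analysis Suite gave each an enrichment E-score averaged over duplicate arrays.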"}
{"sequence": "TGGCCTAA", "PBM E-score of 8-mer": "-0.229 ± 0.046"}
{"sequence": "AACCGTCT", "PBM E-score of 8-mer": "0.0228 ± 0.024"}
{"sequence": "ATCATCCA", "PBM E-score of 8-mer": "-0.132 ± 0.073"}
{"sequence": "CACATCGC", "PBM E-score of 8-mer": "0.29 ± 0.046"}
{"sequence": "AAAACGTC", "PBM E-score of 8-mer": "0.0301 ± 0.031"}
{"sequence": "GTCAAAAC", "PBM E-score of 8-mer": "0.0767 ± 0.086"}
{"sequence": "GATAGTAA", "PBM E-score of 8-mer": "0.0029 ± 0.023"}
{"sequence": "TATGTACA", "PBM E-score of 8-mer": "-0.0841 ± 0.027"}
{"sequence": "AAAGCCAC", "PBM E-score of 8-mer": "-0.141 ± 0.021"}
{"sequence": "AGGCCCGC", "PBM E-score of 8-mer": "-0.121 ± 0.11"}
{"sequence": "CCCACTAG", "PBM E-score of 8-mer": "-0.0657 ± 0.029"}
{"sequence": "GTGAGCTA", "PBM E-score of 8-mer": "0.0254 ± 0.033"}
{"sequence": "GACCCGAC", "PBM E-score of 8-mer": "0.0714 ± 0.042"}
{"sequence": "TATCATGA", "PBM E-score of 8-mer": "0.0189 ± 0.11"}
{"sequence": "ACCTAGAA", "PBM E-score of 8-mer": "0.0865 ± 0.04"}
{"sequence": "ACCTTATA", "PBM E-score of 8-mer": "0.221 ± 0.084"}
{"sequence": "CCAAACGG", "PBM E-score of 8-mer": "-0.1 ± 0.012"}
{"sequence": "GCCTTCCA", "PBM E-score of 8-mer": "-0.168 ± 0.011"}
{"sequence": "ATTTATAC", "PBM E-score of 8-mer": "-0.181 ± 0.089"}
{"sequence": "AATTGGCC", "PBM E-score of 8-mer": "0.0351 ± 0.0062"}
{"sequence": "AGCCGGAC", "PBM E-score of 8-mer": "-0.302 ± 0.11"}
{"sequence": "CGCAGGTA", "PBM E-score of 8-mer": "0.0836 ± 0.0033"}
{"sequence": "GGGGAGAA", "PBM E-score of 8-mer": "-0.195 ± 0.011"}
{"sequence": "CGCCCCCC", "PBM E-score of 8-mer": "-0.251 ± 0.0097"}
{"sequence": "CCGGTTAA", "PBM E-score of 8-mer": "-0.11 ± 0.047"}
{"sequence": "CGTTACTC", "PBM E-score of 8-mer": "-0.0274 ± 0.037"}
{"sequence": "GTAAAGTA", "PBM E-score of 8-mer": "-0.119 ± 0.051"}
{"sequence": "CCAATGTA", "PBM E-score of 8-mer": "-0.0596 ± 0.1"}
{"sequence": "GCACGACC", "PBM E-score of 8-mer": "-0.0869 ± 0.0098"}
{"sequence": "CAAGTGTC", "PBM E-score of 8-mer": "0.38 ± 0.031"}
{"sequence": "AACCAGAG", "PBM E-score of 8-mer": "-0.205 ± 0.022"}
{"sequence": "ATTCCCTC", "PBM E-score of 8-mer": "-0.207 ± 0.063"}
{"sequence": "AAGCGGGT", "PBM E-score of 8-mer": "0.213 ± 0.05"}
{"sequence": "CCTTAAGA", "PBM E-score of 8-mer": "-0.0828 ± 0.015"}
{"sequence": "GAACAGAA", "PBM E-score of 8-mer": "-0.117 ± 0.024"}
{"sequence": "ATATAGAG", "PBM E-score of 8-mer": "-0.138 ± 0.013"}
{"sequence": "ACCTCCTA", "PBM E-score of 8-mer": "0.052 ± 0.04"}
{"sequence": "CAGAATCG", "PBM E-score of 8-mer": "-0.0163 ± 0.05"}
{"sequence": "GCAGGATA", "PBM E-score of 8-mer": "-0.214 ± 0.12"}
{"sequence": "AGTTACAC", "PBM E-score of 8-mer": "0.172 ± 0.0044"}
{"sequence": "AGTTGGAT", "PBM E-score of 8-mer": "-0.0575 ± 0.024"}
{"sequence": "CGACATAC", "PBM E-score of 8-mer": "0.0349 ± 0.023"}
{"sequence": "GACGGCAC", "PBM E-score of 8-mer": "-0.0253 ± 0.12"}
{"sequence": "TCAACAGA", "PBM E-score of 8-mer": "-0.168 ± 0.18"}
{"sequence": "CGCAGTGC", "PBM E-score of 8-mer": "0.00664 ± 0.05"}
{"sequence": "AGCGAGAA", "PBM E-score of 8-mer": "0.253 ± 0.024"}
{"sequence": "ACGTATCG", "PBM E-score of 8-mer": "-0.00463 ± 0.016"}
{"sequence": "ACGTGCTC", "PBM E-score of 8-mer": "-0.113 ± 0.097"}
{"sequence": "ACGGCTCA", "PBM E-score of 8-mer": "-0.0619 ± 0.026"}
{"sequence": "ATACTAAC", "PBM E-score of 8-mer": "-0.21559 ± 0.00021"}
{"sequence": "CAGAAGCA", "PBM E-score of 8-mer": "-0.143 ± 0.023"}
{"sequence": "ACGTACTG", "PBM E-score of 8-mer": "-0.0937 ± 0.083"}
{"sequence": "CCCGGGCG", "PBM E-score of 8-mer": "0.0891 ± 0.047"}
{"sequence": "CACGTAGG", "PBM E-score of 8-mer": "0.0965 ± 0.0079"}
{"sequence": "CGGAATTC", "PBM E-score of 8-mer": "-0.252 ± 0.017"}
{"sequence": "CTTATTAC", "PBM E-score of 8-mer": "-0.0798 ± 0.01"}
{"sequence": "ACCGTGCC", "PBM E-score of 8-mer": "0.0384 ± 0.033"}
{"sequence": "GATCACCC", "PBM E-score of 8-mer": "-0.0521 ± 0.077"}
{"sequence": "ACTGCTGG", "PBM E-score of 8-mer": "-0.191 ± 0.0095"}
{"sequence": "CGTGCACC", "PBM E-score of 8-mer": "-0.048 ± 0.0088"}
{"sequence": "ACCTACTG", "PBM E-score of 8-mer": "0.0087 ± 0.021"}
{"sequence": "CTGCGAGA", "PBM E-score of 8-mer": "0.212 ± 0.035"}
{"sequence": "ACAATTCA", "PBM E-score of 8-mer": "0.179 ± 0.031"}
{"sequence": "ACACCTGC", "PBM E-score of 8-mer": "0.461 ± 0.017"}
{"sequence": "ATGTATTC", "PBM E-score of 8-mer": "-0.214 ± 0.036"}
{"sequence": "TCCTGTAA", "PBM E-score of 8-mer": "-0.12754 ± 5.7e-05"}
{"sequence": "CTCGGCCA", "PBM E-score of 8-mer": "-0.191 ± 0.021"}
{"sequence": "AAAGTTTG", "PBM E-score of 8-mer": "-0.0534 ± 0.087"}
{"sequence": "ACGAGTAA", "PBM E-score of 8-mer": "-0.0778 ± 0.013"}
{"sequence": "GCTCAGTA", "PBM E-score of 8-mer": "-0.0871 ± 0.027"}
{"sequence": "ATACAGCG", "PBM E-score of 8-mer": "0.16 ± 0.034"}
{"sequence": "CTTATAAC", "PBM E-score of 8-mer": "-0.0651 ± 0.11"}
{"sequence": "CTACCCAC", "PBM E-score of 8-mer": "-0.138 ± 0.032"}
{"sequence": "CTGTCAAA", "PBM E-score of 8-mer": "0.266 ± 0.04"}
{"sequence": "ATAGGCAT", "PBM E-score of 8-mer": "-0.337 ± 0.021"}
{"sequence": "ACTACTAT", "PBM E-score of 8-mer": "-0.175 ± 0.051"}
{"sequence": "GTCACACA", "PBM E-score of 8-mer": "0.3901 ± 0.0019"}
{"sequence": "GATGGCGC", "PBM E-score of 8-mer": "0.106 ± 0.072"}
{"sequence": "CGTGGATC", "PBM E-score of 8-mer": "-0.236 ± 0.11"}
{"sequence": "ACGTAAGA", "PBM E-score of 8-mer": "-0.311 ± 0.089"}
{"sequence": "GACTCGAA", "PBM E-score of 8-mer": "-0.0914 ± 0.051"}
{"sequence": "TAATTCAA", "PBM E-score of 8-mer": "-0.292 ± 0.037"}
{"sequence": "GCGAGTCC", "PBM E-score of 8-mer": "-0.00724 ± 0.067"}
{"sequence": "CTGTCGCC", "PBM E-score of 8-mer": "0.315 ± 0.027"}
{"sequence": "ATCGGGCC", "PBM E-score of 8-mer": "-0.161 ± 0.05"}
{"sequence": "AATCAACA", "PBM E-score of 8-mer": "0.231 ± 0.033"}
